# From PubChem BioAssay AID624296 (National Center for Advancing Translational Sciences (NCATS), 2012)
# Screen size: about 350,000 compounds; about 9,900 (2.8%) were called active. This list was built around the results that the source calls inconclusive (neither active nor inactive); the mix of calls is not that of the screen. Calls come from the whole dose curve; as a rule, active = well fitted activation curve with a large enough effect; inconclusive = small, poorly fitted or top-dose-only effect; inactive = no such curve, though single readings can be large or run the other way. No potency is given beside an inconclusive call; the fits are too rough.
# Experiment: A quantitative high throughput screen for small molecules that induce DNA re-replication in MCF 10a normal breast cells. For activity, positive = re-replication: % of control where 0% means no effect. Note: nearly all actives have a fitted effect of over 50% in size.
# Conditions: MCF 10A DNA re-replication, Hoechst nuclear intensity, 48 h; activity, positive = re-replication: at 46.1 µM (top of the series)
# Potency is the fitted concentration of half-maximal effect; tags give direction and shape of the fitted curve.
Structure (SMILES),Potency,"activity, positive = re-replication"
COc1cc2c(cc1OC)C(c1cccs1)N(C(=O)c1ccncc1)CC2 (configuration not stated),"inconclusive [activator, partial curve, poor fit]",
O=C(Nc1ccc(NC(=O)c2cccs2)c(Cl)c1)c1cccs1,"inconclusive [activator, single point]",
CC(NC(=O)COC(=O)C1CCN(c2ccc(C(F)(F)F)cn2)CC1)c1ccc(Br)cc1 (configuration not stated),"inconclusive [activator, full curve, poor fit]",
CCOC(=O)c1c(NC(=O)C2CC2)sc(C)c1CC,"inconclusive [activator, single point]",
O=C(COC(=O)c1ccccc1Cc1ccccc1)Nc1ccc(SC(F)F)cc1,active: 25.9 µM,
Cc1ccc(NC(=O)C2C(c3ccccc3)C2(Cl)Cl)c(C)c1 (configuration not stated),"inconclusive [activator, partial curve, poor fit]",
CC(C)(C)C1CCC(CN2CCC(CN3C(=O)C(=O)NC[C@@H]3Cc3ccccc3)CC2)CC1 (some centres not stated),,inactive: -5.83%
Cc1cccc(NC(=S)N/N=C2\CC(C)(C)Oc3ccc(O)cc32)c1,"inconclusive [activator, single point]",
O=C(CN1CCN(c2ccc(O)cc2)CC1)Nc1ccc2c(c1)OCCCO2,,inactive: -2.96%
O=C(COC(=O)CNS(=O)(=O)c1ccc2ccccc2c1)Nc1ccccc1Sc1ccccc1,,inactive: -1.21%
COc1cccc(CNCCNC(=O)c2nonc2N)c1,,inactive: 1.23%
Cc1ccc(C)c(Nc2nn3c(=O)c4ccc(C(=O)NCc5cccnc5)cc4nc3s2)c1,"inconclusive [activator, single point]",
O=C1[C@H](Cc2ccccc2)NCCCC[C@H](c2ccc(Cl)cc2)N1Cc1ccccc1,"inconclusive [activator, partial curve, poor fit]",
CSc1ccc(S(=O)(=O)N(C)Cc2ccccc2)cc1,,inactive: 2.96%
COc1cc2ccccc2cc1C(=O)Nc1ccc(N2CCN(C(=O)C(C)C)CC2)cc1,,inactive: -13.2%
COc1ccc2c(c1)OC[C@H]1[C@H]2N2C(=O)CN(Cc3ccc(F)cc3)C(=O)[C@@]2(C)[C@H]1c1ccccc1,"inconclusive [activator, single point]",
O=C(CSc1nnc(NC2CCCCC2)s1)N1CCOCC1,,inactive: 0.398%
COc1ccc(NC(=O)N(Cc2cc3cc(OC)c(OC)cc3[nH]c2=O)CC2CCCO2)cc1 (configuration not stated),,inactive: -5.92%
CCOc1ccc(-n2cc(-c3ccccc3)c3c(N4CCOCC4)ncnc32)cc1,"inconclusive [activator, single point]",
CN(C)C1=NCC(CSC(=N)N)S1 (configuration not stated),"inconclusive [activator, single point]",
Cc1cc2oc(=O)cc(CN(C)Cc3ccccc3)c2cc1C(C)C,active: 14.6 µM,
CCCCCCOc1ccc(C(=N)N(CCCC)CCCC)c2ccccc12,"inconclusive [activator, single point]",
COc1cc(NC(=S)N2CCCC(CO)C2)cc(OC)c1 (configuration not stated),,inactive: 13.5%
CC1C(=O)N2CCCc3cc(NC(=O)c4ccccc4Br)cc1c32 (configuration not stated),,inactive: 13.4%

Structure (SMILES),Potency,"activity, positive = re-replication"
C=C(C(=O)c1ccccc1)C(c1ccccc1)C(C)C(=O)c1ccccc1 (configuration not stated),"inconclusive [activator, partial curve, poor fit]",
O=C(N/N=C/c1cn(-c2cccs2)nc1-c1ccccc1)c1ccccc1O,active: 14.6 µM,
CCCCCCCNC(=O)C1(CC2CC(c3cccc(Br)c3)=NO2)CCN(C(=O)C2(C)CC2)CC1 (configuration not stated),"inconclusive [activator, single point]",
COc1ccc(S(=O)(=O)N2CCCCCC2)cc1NC(=O)Cc1ccccc1,,inactive: 0.0033%
CCc1nnc(NC(=O)CCc2c[nH]c3ccccc23)s1,,inactive: -7.56%
COc1ccc(S(=O)(=O)N2CCC(C(=O)NC3CC3)CC2)cc1,,inactive: -0.562%
O=C1NC(=S)S/C1=C/c1ccc(OC(=O)c2ccco2)cc1,"inconclusive [activator, partial curve, poor fit]",
CCN1C(=O)c2cccc3c(N)ccc(c23)C1=O,,inactive: 5.05%
C=CCNC(=S)Nc1ccc2nsnc2c1,,inactive: 16.5%
O=C(OCCN1CCCCC1)C1(c2ccccc2)CCCC1,"inconclusive [activator, single point]",
COc1ccc(O)c(C(=O)CC(=O)c2ccccc2C)c1,"inconclusive [activator, single point]",
CC(=O)Nc1ccc(OCC(O)CN2CCN(c3ccccc3Cl)CC2)cc1 (configuration not stated),,inactive: 9.34%
Cc1ccc2c(CN3CCN(S(=O)(=O)c4ccccc4C(F)(F)F)CC3)cc(=O)oc2c1C,,inactive: 22.3%
COc1ccc(/C=N/NC(=O)c2ccc(N3CCCC3=O)cc2)cc1,,inactive: -2.39%
COc1ccc(CCc2nc(-c3ccc(-n4cccc4)cc3)no2)cc1,"inconclusive [activator, partial curve, poor fit]",
CCOC(=O)C(NC(=O)c1ccccc1)(OCC1(CC)COC1)C(F)(F)F (configuration not stated),,inactive: -0.0368%
S=C1NC2=C(CCC/C2=C\c2ccccc2)C(c2ccccc2)N1 (configuration not stated),"inconclusive [activator, partial curve, poor fit]",
COc1ccc(CCC(=O)Nc2ccc(-c3noc(-c4ccc(OC)c(OC)c4)n3)cc2)cc1,"inconclusive [activator, partial curve, poor fit]",
CCOC(=O)c1ccc(N2C(=O)C=CC2=O)cc1,"inconclusive [activator, single point]",
Cc1ccc(NC(=O)CN(C)C(=O)C2CCC2)cc1,,inactive: 3.98%
CCN(Cc1ccccc1)S(=O)(=O)c1ccc(C(=O)N(CCCN(C)C)c2nc3c(C)c(C)ccc3s2)cc1,active: 15.8 µM,
CCOC(=O)c1ccc(NC(=O)Cn2cc3c(n2)CCC(C)C3)cc1 (configuration not stated),"inconclusive [activator, partial curve, poor fit]",
O=C(NC[C@@H]1CCCO1)c1cccc2c1C(=O)c1ccc(N3CCOCC3)cc1S2(=O)=O,"inconclusive [activator, single point]",
